According to PubChem BioAssay AID602332 (National Center for Advancing Translational Sciences (NCATS), 2012):
In all, about 420,000 compounds went through this assay and about 75 (0.02%) were called active. This list was built around the results that the source calls inconclusive (neither active nor inactive); the mix of calls is not that of the screen. Calls come from the whole dose curve; as a rule, active = well fitted activation curve with a large enough effect; inconclusive = small, poorly fitted or top-dose-only effect; inactive = no such curve, though single readings can be large or run the other way. Potencies of inconclusive entries are doubtful fits and often do not repeat. Where a structure was tested more than once in an assay, its records may differ in their call.
Potency is the fitted concentration of half-maximal effect; tags give direction and shape of the fitted curve.

Experiment: qHTS for Inducers of the Endoplasmic Reticulum Stress Response (ERSR) in Human Glioma: qHTS; note: nearly all actives have a fitted effect of over 35% in size; for activation: % of control where 0% means no effect
Conditions: U87-MG GRP78 promoter luciferase reporter, 16 h; activation: stronger effect = higher value
Procedure, shortened: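 Stably transfected U87-MG human glioma cells carrying a GRP78-based luminescent sensor were seeded at 1000 cells/well, pin-dosed with compounds and incubated 16 h. Luciferase reagent was then added, and end-point luminescence was read after 10 min at room temperature.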
In the case of `CCc1nnc(NC(=S)Nc2ccccc2)s1`, the Potency was inconclusive: 2 µM [activator, full curve, poor fit].
With `CCN1CCN(CCNC(=O)c2ccc(/C=C3/Sc4ccccc4N(Cc4ccccc4C)C3=O)cc2)CC1` the activation was inactive: -9.27%.
In the case of `COC(=O)CSc1nnc(-c2ccc(S(=O)(=O)NCc3cccs3)cc2)o1`, the Potency was inconclusive: 20 µM [activator, partial curve, poor fit].
For `O=C(CCC1N=C2c3ccccc3N=C(SCc3ccc(F)cc3)N2C1=O)NC1CCCCC1` (stereo not drawn), the activation was inactive: -0.0599%.
For `CCOC(=O)C(Cc1ccccc1)NC(=O)CCc1nnc2ccc(N3CCCCC3)nn12` (stereo not drawn), the Potency was inconclusive: 50.1 µM [activator, single point].
For `C[N+](C)(C)CCCNC(=O)c1ccc(/C=N/O)nc1`, the activation was inactive: -1.52%.
With `CCOC(=O)C1(CCOc2ccccc2)CCN(Cc2cccc(OC)c2O)CC1` the activation was inactive: -1.8%.
In the case of `CCOC(=O)c1c(N2C(=O)Nc3cc(Cl)c(Cl)cc3N2O)sc2c1CCCCC2`, the Potency was inconclusive: 44.7 µM [activator, partial curve, poor fit].
With `CC(c1ccc(O)cc1)(c1ccc(O)cc1)c1ccc(CCBr)cc1` the activation was inactive: -4.5%.
With `COC(=O)C1=C(C)C(c2ccc(OC)cc2)NC(=O)N1` (stereo not drawn) the activation was inactive: 4.57%.
With `O=C(C[n+]1cc(Br)cc2ccccc21)c1ccc(O)c(O)c1` the activation was inactive: -2.78%.
For `Cc1nn2c3ccccc3n(Cc3ccccc3)c2nc1=O`, the activation was inactive: -1.92%.
For `COc1ccc(C(=O)C=Cc2ccc3c(c2)OCO3)cc1OC`, the Potency was inconclusive: 44.7 µM [activator, single point].
In the case of `COc1ccc2[nH]c(=O)c(CNc3ccccc3)cc2c1`, the Potency was inconclusive: 11.2 µM [activator, partial curve, poor fit].
For `COc1ccc(/C=C2\SC(=N)N(c3nccs3)C2=O)cc1OC`, the Potency was inconclusive: 50.1 µM [activator, single point].
For `Cc1ccc(SCc2cn3cc(Cl)ccc3n2)cc1`, the Potency was inconclusive: 44.7 µM [activator, partial curve, poor fit].
With `CC(C)C(=O)Nc1ncc(Cc2ccc(Cl)cc2)s1` the Potency was inconclusive: 35.5 µM [activator, partial curve, poor fit].
For `CCc1cccc(NC(=O)c2ccc3c(=O)n4nc(Nc5ccccc5OC)sc4nc3c2)c1`, the Potency was inconclusive: 3.55 µM [activator, full curve, poor fit].
For `CCOC(=O)Cc1csc(NC(=O)COc2ccc3ccccc3c2)n1`, the activation was inactive: 7.03%.
With `CC(=O)Nc1cc(-c2ccccc2N(C)C)cn2c(-c3ccc(F)c(Cl)c3)cnc12` the Potency was inconclusive: 44.7 µM [activator, single point].
In the case of `COCCNC(=O)C1(C)CCN(C(=O)COc2ccc(Cl)cc2Cl)C1` (stereo not drawn), the Potency was inconclusive: 50.1 µM [activator, single point].
In the case of `Cc1sc(NC(=S)NC(=O)c2ccco2)c(C#N)c1C`, the Potency was inconclusive: 50.1 µM [activator, single point].
For `COc1cc(Cl)c(S(=O)(=O)NCCCN2CCOCC2)cc1Cl`, the Potency was inconclusive: 63.1 µM [activator, single point].
For `CC(C)(C)c1cc(O)c(C(C)(C)C)cc1O`, the Potency was active: 39.8 µM.
For `CCC1CN(CC(=O)NC(C)c2cn(C)nc2C)Cc2cc(OC)ccc2O1` (stereo not drawn), the activation was inactive: -5.89%.
With `O=C1CC(N2CCOCC2)C(=O)N1c1ccc(Cl)cc1` (stereo not drawn) the Potency was inconclusive: 28.2 µM [activator, single point].
For `O=C(NCCc1ccccc1)c1ccc2c(c1)S(=O)(=O)N=C1CCCCCN12`, the activation was inactive: -1.04%.
With `COc1ccc(-c2nnsc2N2C(=O)c3ccccc3C2=O)cc1` the Potency was inconclusive: 50.1 µM [activator, single point].
In the case of `CCOC(=O)CSc1ccc2nnc(-c3ccccc3)n2n1`, the activation was inactive: -4.29%.
In the case of `Cc1cccn2c(=O)c(/C=C(\C#N)C(=O)NC3CCS(=O)(=O)C3)c(Oc3ccccc3Cl)nc12` (stereo not drawn), the Potency was inconclusive: 14.1 µM [activator, single point].
In the case of `CCc1nc2c(OCCC3CCCCC3)cccn2c1N(C)C(=O)CC(C)C`, the Potency was inconclusive: 50.1 µM [activator, single point].
With `COC1=CC(=O)C(O)=C/C1=C\C=C\c1ccccc1` the Potency was inconclusive: 12.6 µM [activator, single point].
In the case of `Cc1ccc(C(=O)Nc2ccccc2C(=O)O)cc1S(=O)(=O)N1CCCCCC1`, the Potency was inconclusive: 50.1 µM [activator, partial curve, poor fit].
With `Cc1cc(Br)cn2c(Cc3ccsc3)c(-c3ccc(F)cc3)nc12` the Potency was inconclusive: 50.1 µM [activator, single point].
In the case of `O=S(=O)(Nc1cccc2cccnc12)c1ccc(S(=O)(=O)N2CCCC2)cc1`, the Potency was inconclusive: 14.1 µM [activator, single point].
For `CN1c2ccccc2C(O)=C(C(=S)Nc2ccc(Cl)cc2)S1(=O)=O`, the Potency was inconclusive: 39.8 µM [activator, partial curve, poor fit].
With `COc1ccc(CCNc2ccc(S(=O)(=O)N3CCCC3)cc2[N+](=O)[O-])cc1` the activation was inactive: -3.77%.
In the case of `CC(C)(C)c1ccc(CSc2nnc(-c3ccccn3)n2Cc2ccco2)cc1`, the Potency was inconclusive: 63.1 µM [activator, single point].
For `O=C(/C=C/c1ccco1)N(c1ccccn1)c1ccccn1`, the activation was inactive: -4.43%.
With `NS(=O)(=O)c1ccc(N/N=C/c2cn(-c3ccccc3)nc2-c2ccccc2)c([N+](=O)[O-])c1` the Potency was inconclusive: 4.47 µM [activator, partial curve, poor fit].
In the case of `COC(=O)C(Sc1ccc(Cl)cc1)C1SC(=S)N(Cc2ccccc2)C1=O` (stereo not drawn), the Potency was inconclusive: 11.2 µM [activator, single point].
With `CCOC(=O)c1ccc(NC2=CC(=O)C(=O)c3ccccc32)cc1` the Potency was inconclusive: 35.5 µM [activator, partial curve, poor fit].
In the case of `CCCCNC(=O)c1sc(=S)n2c1[nH]c(=O)c1ccccc12`, the Potency was inconclusive: 50.1 µM [activator, single point].
For `CCOC(=O)CC1=NN(c2ccccc2)C(=O)/C1=C\c1ccc(OC)cc1OC`, the activation was inactive: 3.62%.
In the case of `Cc1cccc(CNc2ccnc(-c3cccc(NS(C)(=O)=O)c3)n2)c1`, the activation was inactive: -2.52%.
In the case of `CCOC(=O)c1cccc(NC(=O)CSc2nc3cc4ccccc4cc3[nH]2)c1`, the Potency was inconclusive: 50.1 µM [activator, single point].
In the case of `O=C(c1cc(-c2cccc(O)c2)on1)N1CCN(C(c2ccccc2)c2ccccc2)CC1`, the Potency was inconclusive: 44.7 µM [activator, partial curve, poor fit].
In the case of `COc1ccc(C(=O)NC(C)CCc2ccccc2)c(O)c1` (stereo not drawn), the Potency was inconclusive: 44.7 µM [activator, partial curve, poor fit].
In the case of `c1ccc2c(c1)OCCOCCOCCOCCO2`, the activation was inactive: -0.433%.
With `COC(=O)c1cc(=O)n(Cc2ccc(F)cc2)c(=Nc2ccccc2)s1` the Potency was inconclusive: 50.1 µM [activator, single point].
For `CCOC(=O)/C(=C\c1ccc(Cl)cc1)c1nc2sc(C)c(C)c2c(=O)[nH]1`, the Potency was inconclusive: 11.2 µM [activator, single point].
With `CN1CCN(C(CNC(=O)Nc2ccc(Cl)cc2)c2ccc(F)cc2)CC1` (stereo not drawn) the activation was inactive: 1.69%.
For `Cc1onc(-c2ccccc2)c1C(=O)Nc1ccc(N2CCOCC2)cc1`, the activation was inactive: -0.855%.
For `COc1ccc(NC(=O)C(C)n2c(C)c3cnn(-c4ccccc4)c(=O)c3c2C)cc1Cl` (stereo not drawn), the Potency was inconclusive: 50.1 µM [activator, partial curve, poor fit].
With `COc1ccccc1N1CCN(S(=O)(=O)c2ccc3c4c(cccc24)C(=O)N3)CC1` the Potency was inconclusive: 11.2 µM [activator, partial curve, poor fit].
In the case of `CCc1cc(=O)oc2c(C)c(OCC(=O)NCC3CCC(C(=O)O)CC3)ccc12` (stereo not drawn), the activation was inactive: -2.66%.
In the case of `CCNC(=S)NCc1ccc(OC)c(OC)c1`, the activation was inactive: -2.6%.
In the case of `CCCCc1nc2cc(C(=O)N(C)C3CCOCC3)ccc2o1`, the Potency was inconclusive: 35.5 µM [activator, partial curve, poor fit].
In the case of `CCOC(=O)c1nn(C23CC4CC(CC(C4)C2)C3)c2c1C(=O)N(c1ccc(C)cc1)C2=O`, the activation was inactive: -3.08%.
In the case of `Cc1ccc(C(=O)OCC(=O)NC(=O)c2ccccc2)o1`, the Potency was inconclusive: 14.1 µM [activator, single point].
In the case of `COc1cccc(N2CCN(C(=O)C3CCCN(c4ncnc5c4nc4n5CCCCC4)C3)CC2)c1` (stereo not drawn), the activation was inactive: 2.68%.
For `COc1ccc(NC(=O)CCCc2nnc3n(CCC(C)C)c(=O)c4sccc4n23)cc1Cl`, the Potency was inconclusive: 12.6 µM [activator, partial curve, poor fit].
With `Cc1ccc(C(=O)NCC(c2ccco2)N2CCc3ccccc3C2)cc1` (stereo not drawn) the activation was inactive: -6.28%.
For `Cc1ccc(C)c(NC(=O)c2nnn(CC(=O)Nc3cccc(C)c3C)c2N)c1`, the activation was inactive: -3.85%.
With `CCOC(=O)CNC(=O)CNC(=O)c1ccc(OC)cc1` the activation was inactive: -2.15%.
With `Clc1ccc(CNc2cc(-c3ccccc3)nc3nncn23)cc1` the activation was inactive: 8%.
For `Cc1ccc(OCc2nnc(SCC(=O)Nc3ccc4c(c3)OCO4)n2C)cc1`, the Potency was inconclusive: 11.2 µM [activator, single point].
In the case of `Oc1ccccc1C1C=C(c2ccc3c(c2)OCO3)NC(c2cccc(Br)c2)N1` (stereo not drawn), the Potency was inconclusive: 28.2 µM [activator, single point].
